Source: the supplement of paper PMC10338343
± gives the standard deviation. The full ranking holds about 6,600 sequences; the median of “pre-steady-state target cleavage rate” is about 0.07, and the highest 2% start at about 0.72. The entries are a selection whose mix differs from that of the whole data set.

These sequences were tested on MIWI (PIWIL1) piRISC loaded with Kctd7 piRNA (30 nt) (assay: pre-steady-state target cleavage rate (min^-1); MIWI and MILI are mouse PIWI proteins and EfPiwi is from a freshwater sponge; tags in brackets are library labels; higher = faster piRNA-guided slicing of the target). Conditions: guide: Kctd7 piRNA 5'p-UGUUAAUCUCUCAGAGAAGGUGACAGUGAU; auxiliary factor: 500 nM mouse GTSF1.
Procedure, shortened: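 The pre-steady-state cleavage rate was calculated from a burst-and-steady-state fit. Data came from Cleave-'n-Seq, in which […] transcribed, DNA-blocked target RNA library was mixed with 1 nM active affinity-purified piRISC carrying one synthetic guide, with or without 500 nM GTSF1 partner protein, in HEPES–potassium acetate buffer at 33 °C for 0–8 or 0–960 min. Uncleaved targets were sequenced and normalised to depth and to weakly complementary targets, three trials were pooled, and k3 was capped at 0.0001 min^-1.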
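Also: 1 nM active piRISC with 0.1 nM target library at 33 °C single turnover.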

Sequence | pre-steady-state target cleavage rate
UAGUGUGUCACCUUCUCUGACAGAUUAUGA | 0.00437 ± 0.0041
UAGUGACAGUCCUUGUCUGAGAGAUUUACA | 0.00584 ± 0.0027
UAGUGACACACCUUCACUGAGAGAUAAACA | 0.112 ± 0.022
UACACUGUCACCUUCUCUGAGAGAUAACA | 0.151 ± 0.026
UACAGUGUCACCUACUCUGAGAGAUUAACA | 0.585 ± 0.038
UACACUGUCACCUUCUCUGUGAGAUUUACA | 0.19 ± 0.03
AUCACUGUCACCUUCUCACAGAGAUUAACA | 0.0253 ± 0.0073
UAGUGUGUCACCUUCUCUGAGAGUAAAAGA | 0.053 ± 0.021
UAGUGACAGACCUUCUCUGAGAGAUUAAAA | 0.074 ± 0.015
UUCACUGUCACCUUCUCUCAGAGAUUAUGA | 0.0222 ± 0.0082
UACACUGUCACCUUCUCUGACAGAUUUACA | 0.0383 ± 0.011
UAGUGACAGACCUUCUCUGAGAGAUUGAACA | 0.0387 ± 0.0074
UAGUCUCACACCUUCUCUGAGAGAUUUUGA | 0.0199 ± 0.0063
UAGUGACUCAGCUUCUCUCAGAGAUUAACA | 0.0105 ± 0.0034
UAGUGAGUGACCUUCUCUGAGAGAUUUACA | 0.25 ± 0.032
UAGACUGUGACCUUCUGUGAGAGAUUAACA | 0.314 ± 0.023
UAGUGAGUCACCUACUCUGAGAGAUAAACA | 0.275 ± 0.035
AUCAGUGUCACCUUCUCUGAGAGAUUUACA | 0.27 ± 0.036
AUCACAGUCACCUUCUCUGAGUGAUUAACA | 0.0408 ± 0.0084
AUCACUGUCACCUUGAGUGAGAGAUUAACA | 0.0226 ± 0.012
UAGUGACUCACCUUCCUCUGAGAGAUUAACA | 0.0564 ± 0.0091
UAGUGUGUCACCUUCACUGAGAGAUUUACA | 0.168 ± 0.026
UAGUCAGUCACCUUCUCUGAGUGAUUAACA | 0.0302 ± 0.0058
UUGCACUGUCACCUUCUCUGAGAGAUUAACA | 0.781 ± 0.045

Sequence | pre-steady-state target cleavage rate
UAGUGAGUCACCUUCUCUGAGAGAUUAACC [g2:g24:cont:t1C] | 0.328 ± 0.02
UAGUGAGUCACCUUCUCUGUGACAUUAACA | 0.0411 ± 0.0085
UACACUGAGACCUUCUCUGAGAGAUUUUGA | 0.0222 ± 0.0096
UUCACUGUCACCUUCUCGGAGAGAUUAACA | 0.256 ± 0.018
UUCACUGUCACCUUCUGUGAGAGAUAUUGA | 0.0244 ± 0.011
UAGUGACAGUCCUGCUCUGAGAGAUUAACA | 0.0158 ± 0.0033
UAGUGACAGACCUUCUCUGAGAGAUUAACC [g2:g21:cont:t1C] | 0.109 ± 0.012
AUCACUGUCACCUUCUCUGAGAGAUAAUGA | 0.0523 ± 0.014
UAGUGAGUCACCUUCUUCUGAGAGAUUAACA | 0.0316 ± 0.015
UAGUGACAGUGCUUCUCUGAGAGUAUUAACA | 0.00419 ± 0.0027
UAGUGACUCUCCUUCUCUGAGAGAUUAUGA | 0.00356 ± 0.0021
UAGUCUGUCACCAUCUCAGAGAGAUUAACA | 0.11 ± 0.013
UAGUCUGAGUCCUUCUCUGAGAGAUUAACA | 0.0581 ± 0.0078
UACACUCACACCUUCUCUGAGAGAUUAAGA | 0.109 ± 0.023
UAGUGAGUCACCUUCCUGAGAGAUUAACA | 0.0758 ± 0.021
UAGUGACUCACCUUCUCUGUGAGUUUAACA | 0.0217 ± 0.0082
UAGUGACAGACCUUCUCUGAGAGAAUAACA | 0.0288 ± 0.0083
UAGUCUGACUCCUUCUCUGAGAGAUUAACA | 0.237 ± 0.022
UACACUGUGUCCUUCUCUGAGAGAUUAAGA | 0.0709 ± 0.014
AUCAGUGUCACCUUGUCUGAGAGAUUAACA | 0.209 ± 0.029
UAGUGACAGUGGAACUCUGAGACUAUAACA | 0.00936 ± 0.0093
UAGUGACAGUGCUUCUCUGAGAGAUUCAACA | 0.00487 ± 0.0022
UACACUGUCACCUACUCUGAGAGAUAAACA | 0.227 ± 0.024
UAGUCUGUCAACCUUCUCUGAGAGAUUAACA | 0.256 ± 0.022

Sequence | pre-steady-state target cleavage rate
UAGUGACAGUGGAAGUCUGAGAGACUUAACA | < 0.0001
UAGUGUGUCACGUUCUCUGAGAGAUUAUGA | 0.0336 ± 0.0096
UAGUGACUCACGUUCUCUCAGAGAUUAACA | 0.0111 ± 0.0034
UACACUGUCACCUUCUCUAAGAGAUUAACA | 0.416 ± 0.022
AUCAGACUCACCUUCUCUGAGAGAUAUUGA | 0.00457 ± 0.0024
UAGUGACACACCUUCUCUGAGAGUAUUAACA | 0.224 ± 0.029
UAGUGUGUCACCAAGUCUGAGAGAUUAACA | 0.0449 ± 0.0069
UAGUGACUCACCUUGUCUGAGAGAUUAAGA | 0.0301 ± 0.013
AUCACUGUCACCUUCUCUGUCUGAUUAUGA | 0.0195 ± 0.0084
UAGUGACACAGCUUCUCUGAGAGAUAAACA | 0.0495 ± 0.0065
UUCACUGUCAGGUUCUCUGAGAGAUUAUGA | 0.0127 ± 0.003
AUCACUGUCAGGAUCUCUGAGAGAUUAACA | 0.225 ± 0.03
UACACUGUCACCUCUCUGAGAGAUUAACA | 0.5 ± 0.035
UUCACUGUCACCUUCUCUGAGAGAAUUACA | 0.42 ± 0.091
UAGUGUGUCACCAUCUCUGUGAGAUUAACA | 0.149 ± 0.014
UAGACUGUCACCUUCUCUGAGAGAUUCACA | 0.429 ± 0.075
UUCACUGUCACCUACUCUGAGUGAUUAACA | 0.0268 ± 0.0038
AUCACUGUCUCCUUCUCUGAGAGAUUUACA | 0.295 ± 0.04
UAGUGACAGUCCUUCUCAGAGAGAUUAACA | 0.011 ± 0.004
UAGACUCUCACCUUCUCUGAGAGAUUAUGA | 0.0895 ± 0.013
UUCACUGUCACCUACUCUGAGAGAUUAUGA | 0.0962 ± 0.019
UAGUGACACACCUUGUCUGAGAGAUUAAGA | 0.00447 ± 0.0038
UAGUCUGUCACCUUCUGUGAGUGAUUAACA | 0.0196 ± 0.0049
